Test results reported in ChEMBL document CHEMBL4888484, “Replenishing the malaria drug discovery pipeline: Screening and hit evaluation of the MMV Hit Generation Library 1 (HGL1) against asexual blood stage Plasmodium falciparum ,using a nano luciferase reporter read-out” (2022).
Among all 150,000 compounds or so, about 540 (0.36%) showed an effect of 50% or more. The list shows a part of the results.

Test system: Plasmodium falciparum
Assay: Primary screen in NF54 nanoGlo assay, in single point, at 2uM, 72h; a lower Z score goes with more inhibition
Type: functional, Erythrocyte
Conditions: timepoint 72 hour

| SMILES | % Inhibition | Z score |
| --- | --- | --- |
| COc1ccc(NC(=O)Cn2cnc3nc(N4CCCCC4)ncc3c2=O)cc1OC | 9% | -1.7 |
| COc1ccccc1CC(C)(C)NC(=O)c1cc(C(=O)O)ccn1 | 1% | -0.21 |
| Cc1ccc(C)c(C2CC3CC2C2C(=O)N(c4cccc(Cl)c4)C(=O)C32)c1 (stereo not given) | 7% | -0.84 |
| CNS(=O)(=O)N1CCN(c2ncnc3c2ncn3C2CC2)CC1 | -7% | 1.5 |
| Cc1cc(C(=O)NCC(C)(C)C2(O)CCOCC2)nn1C(C)C | -14% | 1.74 |
| Nc1ccc(Br)c(F)c1N | -7% | 0.88 |
| CC1CC(NC(=O)N(C)CCOCC2CC2)C1 (stereo not given) | -17% | 2.67 |
| COCCCN(C(=O)c1nc(C)sc1C)C1CCN(C)CC1 | 0% | 0.06 |
| CC(=O)CC(=O)NC(=N)c1ccccc1 | 7% | -0.8 |
| O=C(c1ccc(O)nc1)N1CCC[C@@H]1CN1CCc2ccccc21 | 4% | -0.71 |
| O=C(NCc1cccc2c1OCC2)N[C@H]1CC12CCOCC2 | -16% | 1.68 |
| Cc1ccc(CCC(=O)N[C@H]2CCOC[C@H]2C2CCOCC2)cc1C | -7% | 1.34 |
| CCC(Oc1ccc2c(c1)C(c1ccccc1)N(Cc1cccc(C)c1)CC2)C(=O)NCC1CC1 (stereo not given) | 19% | -2.31 |
| CC(C)(C)C(=O)N1CCC(Oc2nncs2)CC1 | -9% | 1.42 |
| COc1ccccc1N1CCN(C(=O)CN(C)c2ccccc2)CC1 | 1% | -0.14 |
| O=C1C[C@H]2CC(c3nc(-c4cc(F)cc(Br)c4)no3)[C@@H]1C2 (stereo not given in full) | 5% | -0.89 |
| CCc1cccc(NC(=O)[C@@H]2Cn3cccc3C(=O)N2)c1 | 2% | -0.27 |
| CCCN1C(=O)c2ccccc2N2C(=O)CC[C@@]12C(=O)Nc1ccccc1 | 88% | -14.36 |
| Cc1cc(-c2nc(-c3c(C)noc3C)cs2)ccc1F | 3% | -0.51 |
| Cc1ccoc1C(=O)NC1CCN(CC2(O)CCC(C)CC2)CC1 (stereo not given) | -21% | 3.86 |
| COCCCn1c(C(=O)NC(C)C)nnc1N1CC[C@@H](OC)C1 | -4% | 0.55 |
| O=S(=O)(N[C@H]1CCN(Cc2ccccc2)C1)N1CCOCC1 | 2% | -0.18 |

| SMILES | % Inhibition | Z score |
| --- | --- | --- |
| O=C(c1nc2ccccc2[nH]1)N1CCC(c2nccn2Cc2ccccc2)CC1 | -7% | 0.91 |
| COc1ccc(NC(=O)C2C3NC(=O)NC2(C)Oc2ccc(Cl)cc23)cc1 (stereo not given) | -11% | 2.04 |
| CC(C)(Cc1ccc(O)cc1)C(=O)NCc1ccc2[nH]cnc2c1 | 10% | -1.15 |
| C#CCNS(=O)(=O)N1CCN(Cc2ccc3ncccc3c2)CC1 | 1% | -0.15 |
| CC(O)C1CN(C(=O)Nc2nc(C3CC4CCC3C4)cs2)CCO1 (stereo not given) | 9% | -1.18 |
| Cc1onc(N)c1S(=O)(=O)NC1CCCCC1 | -18% | 1.56 |
| CS(=O)(=O)N1CCN(C(=O)NCCn2cc(-c3ccoc3)cn2)C1=O | -12% | 2.34 |
| CCC(=O)Nc1ccc(Oc2c(C)c(C(=O)O)nn2-c2ccccc2CC)c(S(=O)(=O)NCC(C)C)c1 | 97% | -9.77 |
| O=C(Nc1ccccc1F)N[C@@H]1C[C@H]1CO | -18% | 1.84 |
| CCc1nc(CNC(=O)c2cc(C(F)F)nn2C)cs1 | 3% | -0.51 |
| Cc1cc(NC(=O)Cn2ccc(-c3c(C)nn(C)c3C)n2)n(C)n1 | -6% | 0.72 |
| CCN(CC)CCN(CC)C(=O)c1cccc(-c2ccc(C)nc2N)c1 | -7% | 0.71 |
| CNC(=O)Cc1noc(-c2cc(C)oc2C)n1 | -2% | 0.18 |
| Cc1nc(N)ncc1C(=O)N[C@H]1COCC[C@@H]1OCc1ccccn1 | -8% | 1.32 |
| Cc1cc(C)cc(NC(=O)C2CCN(C(=O)c3nnn4cc(C)[nH]c(=O)c34)CC2)c1 | -5% | 1.01 |
| Cc1noc(C)c1CN(C)C(=O)N[C@@H](C)c1ccc(F)cc1 | -15% | 1.31 |
| COCc1nc(OC)cc(N2CCC(C(N)=O)(c3ccccc3)CC2)n1 | 1% | -0.09 |
| CCc1cc2c(cc1[C@@H](O)C[n+]1ccccc1)C(C)(C)CCC2(C)C | 35% | -3.93 |
| COCCN1CC2(CCC1=O)CCN(Cc1nncn1C(C)C)CC2 | -2% | 0.33 |
| O=C(O)[C@H]1c2nc[nH]c2CCN1Cc1cnc(NCc2ccccc2)nc1 | 5% | -0.56 |
| O=C(c1ccc2[nH]ccc2c1)N1C2CCC1CC(=C1CC1)C2 | 11% | -1.5 |
| CC(C)C[C@H](N)C(=O)N(C)Cc1ccccc1 | -12% | 1.57 |

| SMILES | % Inhibition | Z score |
| --- | --- | --- |
| CCC1(CNC(=O)NC2CC3CCC2O3)CC1 (stereo not given) | -8% | 0.88 |
| O=S(=O)(NC1C2Cc3ccccc3C21)c1ccc2c(c1)OCCO2 (stereo not given) | -2% | 0.32 |
| C[C@@]1(C(=O)NC2CCCC2)CCC(=O)N1Cc1cccc(Br)c1 | -2% | 0.18 |
| CCCCC1CCC(c2nc(N)n[nH]2)CC1 (stereo not given) | -8% | 1.09 |
| CCn1nc(C)c(-c2ccc(N(C)C)nc2)c1C | -6% | 1.2 |
| O=C(O)c1cccc(C(=O)N2CCn3cc(C(=O)Nc4ccccc4)nc3[C@H]2c2ccccc2)c1 | -15% | 2.26 |
| O=C(Cc1csc(Cc2cccc(Cl)c2)n1)Nc1ccc(N2CCOCC2)nc1 | -6% | 0.85 |
| Cc1ccc(N2CCC(NCCCn3cccn3)CC2)cc1Cl | -5% | 0.81 |
| O=C(COc1ccccc1-c1nnc(-c2ccccc2)o1)Nc1ccc(Cl)cc1F | -10% | 1.1 |
| Cc1c(C)[n+]([O-])c([C@@H](c2ccccc2OCC(=O)O)C2C(=O)OC(C)(C)OC2=O)n1Cc1ccccc1 | -5% | 0.67 |
| COc1ccc(-c2ccc3nc(-c4cc(C)ccc4C)oc3c2)c(OC)c1OC | 1% | -0.25 |
| Cc1cccc(C[C@H](C)NS(C)(=O)=O)n1 | -12% | 1.15 |
| COc1ccc(Oc2cc(CNC(=O)N[C@@H](C)c3c(C)nn(C)c3C)ccn2)cc1 | 8% | -1.08 |
| CCc1[nH]nc(-c2ccsc2)c1NC(=O)c1ccccc1 | -11% | 1.86 |
| COc1ccc(Cn2c(C)cnc2[C@@H]2CCCN2Cc2cnn(C)c2)cc1 | -11% | 1.41 |
| CCN1CCN(CC(=O)N2N=C(c3ccc(C)c(C)c3)C[C@H]2c2ccccc2OC)CC1 | -8% | 1.28 |
| O=C([C@@H]1CCCCN1c1cc(C(F)(F)F)nc(-c2ccncc2)n1)N1CCOCC1 | 1% | -0.23 |
| CCN(CC)c1cc(CCC(=O)NC)ccn1 | -9% | 1.1 |
| Cc1nnsc1CNC(=O)N1CCn2nc(C#N)cc2C1 | -3% | 0.31 |
| O=C(Cn1c(=O)n(Cc2cccc(Cl)c2)c(=O)c2ccccc21)Nc1ccc2c(c1)CCC2 | -4% | 0.62 |
| CCC(C)CC(=O)NC(CO)c1cc(F)c(F)c(F)c1 (stereo not given) | -3% | 0.3 |
| CNC(=O)C(c1ccccc1)C(C(=O)NC)c1cccc2ccccc12 (stereo not given) | 36% | -5.25 |

| SMILES | % Inhibition | Z score |
| --- | --- | --- |
| Cn1c(C(=O)NCCc2ccccn2)cc2ccc(Cl)cc21 | -5% | 0.68 |
| CC(C)(Cc1ccc(C(F)(F)F)cc1)C(=O)NCC#N | -17% | 1.71 |
| O=C1OC2(CCN(C[C@H]3COCCO3)CC2)CN1CCOc1ccccc1 | -2% | 0.15 |
| COc1ncc(CCNC(=O)[C@]2(C)CCOc3ccccc32)cn1 | -8% | 1.47 |
| CC1CCCC(NC(=O)CN2CCC(O)(C(F)(F)F)C2)C1C (stereo not given) | -27% | 3.99 |
| O=C(NCc1ccc(-c2cccc(Cl)c2)o1)N1CCN(CCO)CC1 | -13% | 1.17 |
| COc1ccc(-c2cc(C(=O)Nc3ccncc3)c3ccccc3n2)c(OC)c1 | 2% | -0.25 |
| CC(C)(C(=O)O)c1cccc(C(F)(F)F)n1 | -17% | 2.43 |
| C[C@H]1CCCN(Cc2ccc(NC(=O)Cn3ccc(=O)[nH]c3=O)cc2)C1 | -2% | 0.24 |
| O=C(O)c1cc(-c2c[nH]c3ccc(Cl)cc23)[nH]n1 | -17% | 2.06 |
| C[C@@]1(C(=O)Nc2ccc(C(=O)N3CCOCC3)c(F)c2)CCCc2ccccc21 | -9% | 1.07 |
| Cn1cc(C(=O)NC[C@H](O)c2ccc(-c3cccs3)s2)nn1 | 17% | -2.28 |
| O=C(NCc1ccc(F)cc1Br)N[C@H]1CCCOC1 | -2% | 0.29 |
| O=S(=O)(Nc1cnc(Oc2ccccc2)nc1)c1ccccc1F | -13% | 2.41 |
| Nc1ncc(S(=O)(=O)NCc2cccs2)cn1 | -13% | 1.65 |
| O=C(c1ccncc1F)N1CC(OC[C@H]2CCOC2)C1 | 12% | -1.61 |
| O=C(CN1C(=O)COc2ccc(Cl)cc21)Nc1ccccc1-c1ccccc1 | -5% | 0.69 |
| COc1ccc2nc(NC(=O)c3nn(-c4ccccc4OC)c(=O)c4ccccc34)sc2c1 | -9% | 1.37 |
| c1cc([C@@H]2CCCCO2)oc1CN1CCc2nocc2C1 | -7% | 0.86 |
